Data taken from patent US20250270341A1 (Alector, published 2025).

T1: huCD98hc ECD Avi-His (human, UniProt P08195 105-529)
T1 construct: biotinylated on the Avi tag where captured on streptavidin; also called Human CD98-AVI-His; Human CD98hc-AVI-His
T1 sequence: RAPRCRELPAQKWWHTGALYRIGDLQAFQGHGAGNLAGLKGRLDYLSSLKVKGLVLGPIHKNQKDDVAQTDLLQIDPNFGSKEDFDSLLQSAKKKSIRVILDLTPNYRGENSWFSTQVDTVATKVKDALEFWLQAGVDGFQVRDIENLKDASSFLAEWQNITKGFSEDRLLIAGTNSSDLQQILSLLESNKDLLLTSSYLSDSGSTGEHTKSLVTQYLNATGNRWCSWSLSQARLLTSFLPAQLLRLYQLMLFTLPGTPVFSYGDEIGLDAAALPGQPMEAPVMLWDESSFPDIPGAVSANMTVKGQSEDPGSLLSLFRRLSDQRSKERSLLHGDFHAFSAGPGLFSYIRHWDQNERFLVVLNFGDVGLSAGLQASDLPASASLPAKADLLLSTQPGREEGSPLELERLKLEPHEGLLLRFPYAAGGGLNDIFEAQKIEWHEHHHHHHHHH

T2: Cyno CD98hc ECD Avi-His (cynomolgus macaque, UniProt P08195 105-529 (human entry))
T2 construct: biotinylated on the Avi tag where captured on streptavidin; also called Cyno CD98-AVI-His; Cyno CD98hc-AVI-His
T2 chain: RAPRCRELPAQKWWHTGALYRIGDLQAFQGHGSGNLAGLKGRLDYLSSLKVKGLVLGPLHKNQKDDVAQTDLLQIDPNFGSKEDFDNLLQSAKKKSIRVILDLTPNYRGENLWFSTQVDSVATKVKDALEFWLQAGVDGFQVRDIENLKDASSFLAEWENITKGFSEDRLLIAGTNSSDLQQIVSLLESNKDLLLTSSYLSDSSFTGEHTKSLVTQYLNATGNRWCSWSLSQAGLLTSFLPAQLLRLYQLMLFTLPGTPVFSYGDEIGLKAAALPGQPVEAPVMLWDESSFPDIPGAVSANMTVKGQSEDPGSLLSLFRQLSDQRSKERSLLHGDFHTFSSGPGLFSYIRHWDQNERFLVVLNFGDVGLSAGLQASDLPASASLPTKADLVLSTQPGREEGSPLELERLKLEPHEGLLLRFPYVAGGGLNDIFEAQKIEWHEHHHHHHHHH


Tests used:
huCD98hc ECD Avi-His = biological target: T1, huCD98hc ECD Avi-His; assay: SPR, Carterra LSA, antibody immobilized
Cyno CD98hc ECD Avi-His = biological target: T2, Cyno CD98hc ECD Avi-His; assay: SPR, Carterra LSA, antibody immobilized

Row | Kd (huCD98hc ECD Avi-His) | Kd (Cyno CD98hc ECD Avi-His) | Binder
1 | 22 nM | 38 nM | CD98hc.04.022 (2+1 bispecific antibody) (bispecific antibody) heavy 1: EVRLLESGGGLVQPGGSLRLSCAASGFTFSNYAMGWVRQAPGKGLEWVSAISGSGGSTYYADSVKGRFTTSRDDSKNALYLQMNSLRAEDTAVYYCARGGPGWYAADVWGQGTTVTVSSASTKGPSVFPLAPSSKSTSGGTAALGCLVKDYFPEPVTVSWNSGALTSGVHTFPAVLQSSGLYSLSSVVTVPSSSLGTQTYICNVNHKPSNTKVDKKV[here human IgG1 Fc with changes without letters]GGGGSGGGGSGGGGSEVQLQQSGAELVKPGASVKLSCTASGFNIKDTFMHWMKQRPEQGLEWIGRIDPANANTRYDPKFQGKATITTDTSSNTAYLQLSSLTSEDTAVYYCARDVYYDVWGAGTTVTVSSGGSEGKSSGSGSESKSTGGSDILMTQSPSSMSVSLGDTVTITCHASQGISSNIGWLQQKPGRSFKGLIYHGSNLEDGVPSRFTGSGSGTDYSLTISGLESEDFADYYCVQYAQFPRTFGGGTKLEIQ heavy 2: EVRLLESGGGLVQPGGSLRLSCAASGFTFSNYAMGWVRQAPGKGLEWVSAISGSGGSTYYADSVKGRFTTSRDDSKNALYLQMNSLRAEDTAVYYCARGGPGWYAADVWGQGTTVTVSS[here human IgG1 constant region with changes without letters] light: DIQMTQSPSSLSASVGDRVTITCRASQSISSYLNWYQQKPGKAPKLLIYAASSLQSGVPSRFSGSGSGTDFTLTISSLQPEDFATYYCQQADLPAFAFGGGTKVEIKRTVAAPSVFIFPPSDEQLKSGTASVVCLLNNFYPREAKVQWKVDNALQSGNSQESVTEQDSKDSTYSLSSTLTLSKADYEKHKVYACEVTHQGLSSPVTKSFNRGEC
2 | 16 nM | 5.3 nM | CD98hc.04.054 (2+1 bispecific antibody) (bispecific antibody) heavy 1: EVRLLESGGGLVQPGGSLRLSCAASGFTFSNYAMGWVRQAPGKGLEWVSAISGSGGSTYYADSVKGRFTTSRDDSKNALYLQMNSLRAEDTAVYYCARGGPGWYAADVWGQGTTVTVSSASTKGPSVFPLAPSSKSTSGGTAALGCLVKDYFPEPVTVSWNSGALTSGVHTFPAVLQSSGLYSLSSVVTVPSSSLGTQTYICNVNHKPSNTKVDKKV[here human IgG1 Fc with changes without letters]GGGGSGGGGSGGGGSQVQLQQSAAELARPGASVKMSCETSGYTFTRYTMNWVKQRPGQGLDWIGYINPSSGYAEYNQKFRGKTTLTADKSSSTAYIQLNSLTSEDSAVYYCVRYDGNYVYWGQGTTLTVSSGGSEGKSSGSGSESKSTGGSDIVMTQSQKFMSTSFGDRVDITCKASQNVGSAVAWYQQKPGQSPKLLIYSASNRYTGVPDRFTGSGSGTDFTLTINNMQSADLADYFCQQYNFYPLTFGAGTKLDLK heavy 2: EVRLLESGGGLVQPGGSLRLSCAASGFTFSNYAMGWVRQAPGKGLEWVSAISGSGGSTYYADSVKGRFTTSRDDSKNALYLQMNSLRAEDTAVYYCARGGPGWYAADVWGQGTTVTVSS[here human IgG1 constant region with changes without letters] light: DIQMTQSPSSLSASVGDRVTITCRASQSISSYLNWYQQKPGKAPKLLIYAASSLQSGVPSRFSGSGSGTDFTLTISSLQPEDFATYYCQQADLPAFAFGGGTKVEIKRTVAAPSVFIFPPSDEQLKSGTASVVCLLNNFYPREAKVQWKVDNALQSGNSQESVTEQDSKDSTYSLSSTLTLSKADYEKHKVYACEVTHQGLSSPVTKSFNRGEC
3 | 70 nM | 39 nM | CD98hc.04.046 (2+1 bispecific antibody) (bispecific antibody) heavy 1: EVRLLESGGGLVQPGGSLRLSCAASGFTFSNYAMGWVRQAPGKGLEWVSAISGSGGSTYYADSVKGRFTTSRDDSKNALYLQMNSLRAEDTAVYYCARGGPGWYAADVWGQGTTVTVSSASTKGPSVFPLAPSSKSTSGGTAALGCLVKDYFPEPVTVSWNSGALTSGVHTFPAVLQSSGLYSLSSVVTVPSSSLGTQTYICNVNHKPSNTKVDKKV[here human IgG1 Fc with changes without letters]GGGGSGGGGSGGGGSQIQLVQSGPVLKKPGETVKISCKASGYTFTNFGMNWVKQAPGKGLKWMGWIDTYTREPTYVDDFKGRFAFSLETSVTTAYLQINDLKNEDSATYFCARGESHWYFDVWGAGTTVTVSSGGSEGKSSGSGSESKSTGGSQIVLTQSPAIMSASLGERVTMTCIVSSSVSSSYLYWYQQKPGSSPKLWIYSTSILASGVPGRFSGSGSGTSYSLTISSMEAEDAATYYCHQYHRSPPTFGGGTKLEIK heavy 2: EVRLLESGGGLVQPGGSLRLSCAASGFTFSNYAMGWVRQAPGKGLEWVSAISGSGGSTYYADSVKGRFTTSRDDSKNALYLQMNSLRAEDTAVYYCARGGPGWYAADVWGQGTTVTVSS[here human IgG1 constant region with changes without letters] light: DIQMTQSPSSLSASVGDRVTITCRASQSISSYLNWYQQKPGKAPKLLIYAASSLQSGVPSRFSGSGSGTDFTLTISSLQPEDFATYYCQQADLPAFAFGGGTKVEIKRTVAAPSVFIFPPSDEQLKSGTASVVCLLNNFYPREAKVQWKVDNALQSGNSQESVTEQDSKDSTYSLSSTLTLSKADYEKHKVYACEVTHQGLSSPVTKSFNRGEC
4 | 81 nM | 55 nM | CD98hc.04.045 (2+1 bispecific antibody) (bispecific antibody) heavy 1: EVRLLESGGGLVQPGGSLRLSCAASGFTFSNYAMGWVRQAPGKGLEWVSAISGSGGSTYYADSVKGRFTTSRDDSKNALYLQMNSLRAEDTAVYYCARGGPGWYAADVWGQGTTVTVSSASTKGPSVFPLAPSSKSTSGGTAALGCLVKDYFPEPVTVSWNSGALTSGVHTFPAVLQSSGLYSLSSVVTVPSSSLGTQTYICNVNHKPSNTKVDKKV[here human IgG1 Fc with changes without letters]GGGGSGGGGSGGGGSQIQLVQSGPELKKPGETVKISCKASGYSITNFGMNWVKQAPGKGLKWMGWVNTYTGEPTYADDFKGRFAFSLETSASTASLQINNLKNEDTATYFCTRSVITYTMDYWGQGTSVTVSSGGSEGKSSGSGSESKSTGGSDIQLTQSPSSLSASLGERVSLTCRASQEISGYLSWLQQKPDGTIKRLIYAASTLDSGVPKRFSGSRSGSDYSLTISSLESEDFADYYCLQYASYPRTFGGGTKVEIK heavy 2: EVRLLESGGGLVQPGGSLRLSCAASGFTFSNYAMGWVRQAPGKGLEWVSAISGSGGSTYYADSVKGRFTTSRDDSKNALYLQMNSLRAEDTAVYYCARGGPGWYAADVWGQGTTVTVSS[here human IgG1 constant region with changes without letters] light: DIQMTQSPSSLSASVGDRVTITCRASQSISSYLNWYQQKPGKAPKLLIYAASSLQSGVPSRFSGSGSGTDFTLTISSLQPEDFATYYCQQADLPAFAFGGGTKVEIKRTVAAPSVFIFPPSDEQLKSGTASVVCLLNNFYPREAKVQWKVDNALQSGNSQESVTEQDSKDSTYSLSSTLTLSKADYEKHKVYACEVTHQGLSSPVTKSFNRGEC
